# Data as given in the supplement of paper PMC5919970.
# Where a name gives a salt, the structure may show the parent alone. Over roughly 2,000 compounds, “fractional viability relative to vehicle” has its median near 0.91; the lowest 2% begin near 0.045. This is one part of the list.
# System: TYKNU
# Assay: fractional viability relative to vehicle; TYKNU is a high-grade serous ovarian cancer line; higher = less growth inhibition
# Conditions: 72 h
# Procedure, shortened: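 TYKNU control cells or lentiCRISPRv2 knockout derivatives were seeded at 500 cells per well into drug-stamped 384-well plates holding a ~2100-compound library at 2 or 10 μM, in duplicate. Cells were grown at 37 °C in 5% CO2 in RPMI 1640 with 10% FBS, and drug treatment lasted 72 h. Viability was read by Cell Titer Glo luminescence. Duplicate treatment wells were averaged and normalised to duplicate control wells from the same plate position.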
# [1] = 2uM, genotype: DNM1L knockout (sgDNM1L #1)
# [2] = 2uM, genotype: sgCTRLA1 (non-targeting control)
# [3] = 10uM, genotype: DNM1L knockout (sgDNM1L #1)
# [4] = 10uM, genotype: sgCTRLA1 (non-targeting control)
SMILES,fractional viability [1],fractional viability [2],fractional viability [3],fractional viability [4]
OC[C@@H](O)[C@@H](O)[C@H](O)[C@H](O)CO [D-Mannitol],0.913,1.29,0.841,1.14
CC(=O)OCC(=O)NCCCOc1cccc(CN2CCCCC2)c1 [Roxatidine Acetate HCl],1.1,1.05,1.05,0.98
CCn1cc(C(=O)O)c(=O)c2cc(F)c(N3CCNCC3)nc21 [Enoxacin],1.05,1.02,0.98,1.03
C[C@H](NCc1ccc(OCc2cccc(F)c2)cc1)C(N)=O [Safinamide Mesylate],1.04,1.11,0.986,1.25
C=C(C)[C@@H]1CC[C@]2(C(=O)O)CC[C@]3(C)[C@H](CC[C@@H]4[C@@]5(C)CC[C@H](O)C(C)(C)[C@@H]5CC[C@]43C)[C@@H]12 [Betulinic acid],0.89,1.13,0.691,0.997
O=C(O)C1=C[C@@H](O)[C@@H](O)[C@H](O)C1 [Shikimic Acid],0.996,1.17,0.84,1.06
C1N2CN3CN1CN(C2)C3 [Methenamine],1.05,1.28,0.752,1.09
CC(C)OC(=O)C(C(=O)OC(C)C)=C1SC=CS1 [Malotilate],0.886,1.1,0.843,1.02
c1ccc2c(c1)CCCC2C1=NCCN1 (stereo not drawn) [Tetrahydrozoline HCl],0.932,1.08,0.758,0.986
CC[C@]12C=CCN3CC[C@@]4(c5cc([C@@]6(C(=O)OC)C[C@@H]7C[C@@H](C(C)(F)F)CN(Cc8c6[nH]c6ccccc86)C7)c(OC)cc5N(C)[C@H]4[C@@](O)(C(=O)OC)[C@@H]1OC(C)=O)[C@@H]32 [Vinflunine Tartrate],0.191,0.144,0.142,0.114
O=C(COc1cccc2c(=O)[nH]ccc12)c1ccccc1,0.807,0.824,1.07,0.76
CCNC(=O)[C@H]1O[C@@H](n2cnc3c(N)nc(NCCc4ccc(CCC(=O)O)cc4)nc32)[C@H](O)[C@@H]1O,1.11,1.02,0.979,0.948
CS(=O)(=O)c1ccc([C@@H](O)[C@@H](CF)NC(=O)C(Cl)Cl)cc1 [Florfenicol],0.939,1.16,0.558,0.355
CCCCCOc1ccc(-c2ccc(-c3ccc(C(=O)N[C@H]4C[C@@H](O)[C@@H](O)NC(=O)[C@@H]5[C@@H](O)[C@@H](C)CN5C(=O)[C@H]([C@@H](C)O)NC(=O)[C@H]([C@H](O)[C@@H](O)c5ccc(O)cc5)NC(=O)[C@@H]5C[C@@H](O)CN5C(=O)[C@H]([C@@H](C)O)NC4=O)cc3)cc2)cc1,0.852,0.993,0.851,0.812
CC(C)c1nc(N(C)S(C)(=O)=O)nc(-c2ccc(F)cc2)c1/C=C/[C@@H](O)C[C@@H](O)CC(=O)O [Rosuvastatin Calcium],1.02,1.03,0.767,0.792
COCCCC/C(=N\OCCN)c1ccc(C(F)(F)F)cc1 [Fluvoxamine maleate],0.927,1.09,0.867,0.901
COC(=O)[C@H](c1ccccc1Cl)N1CCc2sccc2C1 [Clopidogrel],0.992,1.1,0.88,0.88
C[C@H](N[C@@H](CCc1ccccc1)C(=O)O)C(=O)N1CCC[C@H]1C(=O)O [Enalaprilat Dihydrate],0.968,1.08,0.906,0.897
NC(=O)N1CCC(CC(=O)N2CCC([C@H]3c4ncc(Br)cc4CCc4cc(Cl)cc(Br)c43)CC2)CC1 [Lonafarnib],0.705,0.752,0.396,0.527
CN(C)[C@@H]1C(O)=C(C(N)=O)C(=O)[C@@]2(O)C(O)=C3C(=O)c4c(O)cccc4[C@@](C)(O)[C@H]3C[C@@H]12 [Tetracycline HCl],1.13,1.11,0.879,0.82
O=C(Nc1cc(C(F)(F)F)cc(C(F)(F)F)c1)c1cc(Cl)ccc1O,0.239,0.232,0.122,0.126
Oc1c(Br)cc(Br)c2cccnc12 [Broxyquinoline],0.644,1.08,0.159,0.24
Nc1ccc2ncnc(NCCc3ccc(Oc4ccccc4)cc3)c2c1,0.604,0.444,0.596,0.43
CNc1nc(-c2ccc3c(N)n[nH]c3c2)cc(N2C[C@@H](C(=O)NC3CCCCC3)CC[C@H]2C)n1,0.786,0.862,0.208,0.194
CN1CCN(S(=O)(=O)c2ccc(-c3cnc(N)c(C(=O)Nc4cccnc4)n3)cc2)CC1,0.731,1.08,0.346,0.474
COc1ccc(-c2coc3cc(O)ccc3c2=O)cc1 [Formononetin],0.887,1.05,0.84,1
CS(=O)(=O)c1ccc(C(=O)Nc2ccc(Cl)c(-c3ccccn3)c2)c(Cl)c1 [Vismodegib (GDC-0449)],1.09,1.11,0.873,1.17
